According to the RNAGym collection of RNA variant scans (doi:10.1093/nar/gkz1192):
Read counts are not given, so values of variants with three or more changes are uncertain.

B1: CPEB3 Ribozyme (parent)
chain: UAACAGGGGGCCACAGCAGAAGCGUUCACGUCGCAGCCCCUGUCAGAUUCUGGUGAAUCUGCGAAUUCUGCUGUAUAUCUC

Variants of: B1
Experiment: self-cleavage, relative activity (ratio to wild type); higher = more cleavage; in vitro, sequencing
Method in brief: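 Barcoded CPEB3 ribozyme mutants, produced by rounds of error-prone PCR, self-cleaved while being transcribed with T7 RNA polymerase for 5 hours at 37°C and during a subsequent 15 min DNase I step before EDTA was added. Sequencing of template-switched cDNA on Illumina gave cleaved and total reads, and DNA sequencing assigned barcodes to variants. Each variant's relative activity is its cleaved/total read fraction divided by the unmutated ribozyme's fraction, averaged across three batches. A variant needed a minimum of 5 reads.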

Variant	self-cleavage
C44A A45G U54C C62G	0.15
U43A U74C A75U	1.22
U43C A47G A57G	0.43
U43C U60C U66C U72A	0.11
A45C U51C U67A U74C	0.43
U43C U51C U60C A64G U78C U80A	0.09
A45C U48A C62U	0.04
U43C U49C U67C	0.13
U43C U48C U72C	0.29
U43C A45U U67A U74C	0.1
U43C A47G U51C	0.62
A45C U48A G70A U72C	0.18
U43G U51C U80C	0.63
U43A U60A U67C	0.29
U43A U54C G73U	1.25
U43C U49C G52C	0.31
U43C A65U A77U	0.09
U43C A47G U51A U78A U80C	0.35
U43C A57G A64U	0.14
C44U U49A A56G U69A	0.14
U43A U54A U66C	0.69
U43C U69A A77G	0.33
U43C A64U U69G U72C	0.17
U43C U69A U72C	0.19

Variant	self-cleavage
U43C U54A A64U U67A U72C	0.1
U43C U54C U80C	0.23
U43C U69A U76C	0.36
A45C U51C G52U U54C A64G	0.1
U43C U54C A57G A64G G70C	0.17
U43C A47G A64G U72C	0.37
U43A U54A C62U	0.1
U43C A45G U54A A56G U60C	0.74
C44G U48C A64G U72C	0.05
U43C U69A U80C	0.15
U43A U72C A75G	1.25
U43G U66C U78C	0.13
A45C U67C C81A	0.16
U43C U49C A56G	0.44
U43C U49C A56C	0.14
U43C A57G A65G U72C	0.2
U43C U48C U51C U69C U78C	0.21
U43G C59U C81A	0.16
A45C U49A U72C	0.31
C44U A45G A56G C71U	0.07
U43C U54A A57G U69C	0.17
U43C A56U A64U	0.13
U43C U49C U66A	0.48
U43G A47G U48C A57U U72A	0.07

Variant	self-cleavage
U43C U58C U60A G73U U78C	0.09
U43C A45U U60A A75U	0.88
U43G A56G U78C	0.37
U43A U54C A64G U69A	0.5
U43C U51C U72A	0.27
U43C U60C U67A	0.09
A45G A47G A56G	0.22
U43C A47G U54G	0.29
U43C U58G U60C	0.1
A45C A56U U60C U69C	0.22
U43C U48C C62A C81A	0.25
U43C U60C A77G	0.3
U43C U72G G73C	0.99
U43A U54G U80C	0.64
C44U U58C U60C	0.7
C44G U60A U78C	0.63
A45G A47G C62A U74C	0.21
U43C A56U A75C	0.17
U43C A57G A75G	0.15
C44U U51C A64C U66A U72C	0.18
U43C A57G U67G	0.14
U43C U48C U69A	0.12
U43G A57G A64U	0.15
U43C U48C U54A A64G	0.08

Variant	self-cleavage
U43A U60C A64G U69A	0.22
U43C U54A A56G A64G	0.16
C44U C68U U72C	0.46
U43C A45U U66C U78C	0.45
A45C A64G U80A	0.29
C44A A64U U78A U80C	0.26
U43C A57U A77G	0.2
U43C U48C U58A	0.09
U43A U72A U78C U80A	0.73
U43C A57G A64U U67C U69A	0.1
U43G U60A C71A U80C	0.03
U43C U76C U78C	0.58
U43C U54C C59A A64G	0.08
U43C A57G U66C	0.11
U43C U49C U60A	0
U43C U60A C62U U78A	0.03
U43C U48C A64U U67A A77G U80C	0.17
U43C A47G U54C U58C	0.88
U43C U67C A77G	0.4
U43C U69C U72C	0.22
U43C A45U U54A A75U	0.15
U43C U49C U69C U80A	0.36
U43C U49A U72C U80A	0.11
C44G U51C G55A	0.19

Variant	self-cleavage
A45C U48A C68G U72C	0.12
U43C A45U A47G U48A C59U	0.16
U43C U49C A65G	0.18
U43C U49C U80A	0.4
A45C G53C A64U	0.19
U43C A65U U66C U72A G73U	0.15
U43A U72G U74C	1.19
U43C A45U U49C A56G	0.29
U43A U76C U78C	1.09
A45C U51C A56G U78A	0.07
U43C U48C U78A	0.17
U43C A56G A57G	0.17
U43C U49A U76C	0.21
U43C U66C U72G	0.15
C44U A56U C62A	0.42
U43C U67C U72G	0.13
U43C U67C U72C	0.13
U43C A45G U74A A75G	0.54
U43C C71U U72G	0.1
U43C G46A A56U U78A	0.07
A45G A47G U58G C62U	0.13
A45C U48C U67C U78C	0.12
C44A G63A U78A	0.32
U43A U60A A65U	0.13

Variant	self-cleavage
U43C U58A U66C	0.11
C44A A45G U74C U78C	0.34
U43C A45U U60C U72C	0.28
U43G A57G C68U A75G	0.06
U43C A47G C71A A75G U78C	0.1
U43C C59A U60C	0.12
U43C A45G U66C U67C	0.02
A45G A47G G73A	1.24
U43A U49C A56G U66C U69C	0.17
U43C A45U A56U U76C U78A	0.04
A45C U54G A56G A57G G61C U80C	0.05
C44U A45G U49G G55A	0.1
U43G G63A A64C	0.24
U43C U54A A65G U72A	0.2
U43A U67C U76A U78C	0.33
A45G A47G A56U U76C	0.17
U43C U51C A57U	0.15
U43C U51C A57G	0.34
C44U U48C A65C	0.07
U43C U49A U78C	0.14
U43C A65G U76C A77U	0.12
U43C A56G U72G	0.24
A45C U48C U49A U78C	0.06
U43C A45G G70A	0.13

Variant	self-cleavage
U43C U54A A64G	0.54
U43C A56G U80C	0.32
U43G U49C U66C	0.08
U43C A56G A65G	0.12
U43A U69G C81A	0.87
U43G G63A U66C	0.27
U43C A45U U48C A56U G70A	0.05
U43C U49A U58C	0.15
U43C U49A C71A	0.06
U43C U51C U80A	1.06
U43C U58C A64G	0.09
U43C A47U U49C	0.32
U43C A47G U51C U54C U80A	0.47
U43C A45G U78C	0.51
C44G A47G U51C	0.22
U43C G63C U74C	1
U43C A45G A56G U67C	0.1
U43C U76A A77C	0.37
U43A U51A U58C	0.44
U43C U51C C59U A64G U72A	0.16
U43A U69A A75G	0.65
U43G U54C G63A	0.14
U43C U48C U67G U78C	0.12
